A collection of fitness landscapes (doi:10.1126/science.1257360)
The list shows a part of the results.

B1: PhoQ; a variant is named by its letters at X, in order, P23837 (parent)
chain: MKKLLRLFFPLSLRVRFLLATAAVVLVLSLAYGMVALIGYSVSFDKTTFRLLRGESNLFYTLAKWENNKLHVELPENIDKQSPTMTLIYDENGQLLWAQRDVPWLMKMIQPDWLKSNGFHEIEADVNDTSLLLSGDHSIQQQLQEVREDDDDAEMTHSVAVNVYPATSRMPKLTIVVVDTIPVELKSSYMVWSWFIYVLSANLLLVIPLLWVAAWWSLRPIEALAKEVRELEEHNRELLNPATTRELTSLVRNLNRLLKSERERYDKYRTTLTDLTHSLKTPLXXLQXXLRSLRSEKMSVSDAEPVMLEQISRISQQIGYYLHRASMRGGTLLSRELHPVAPLLDNLTSALNKVYQRKGVNISLDISPEISFVGEQNDFVEVMGNVLDNACKYCLEFVEISARQTDEHLYIVVEDDGPGIPLSKREVIFDRGQRVDTLRPGQGVGLAVAREITEQYEGKIVAGESMLGGARMEVIFGRQHSAPKDE

Variants of: B1
Experiment: enrichment ratio after two sorts for PhoP signalling (ratio (wild type AVST 3.29)); higher = more functional
Settings: with PhoP (E. coli)

Variant	enrichment ratio
LHQR	0.306
DWAN	≤ 0.25
MVTM	3.98
VAKV	≤ 0.25
VDAY	≤ 0.25
SLLY	≤ 0.25
PEQA	≤ 0.25
WGQF	≤ 0.25
GMNF	≤ 0.25
YECA	0.253
IFQH	≤ 0.25
QFWS	≤ 0.25
ASAG	7.21
DEPN	≤ 0.25
ANLQ	3.29
YGRC	≤ 0.25
MDFD	≤ 0.25
ETIS	≤ 0.25
NKQT	≤ 0.25
NWDM	≤ 0.25
SGWF	≤ 0.25
IFVM	≤ 0.25
QHEY	≤ 0.25
FEHG	≤ 0.25

Variant	enrichment ratio
HGGW	≤ 0.25
QMVN	≤ 0.25
TQLD	4
MSTG	≤ 0.25
THAQ	≤ 0.25
NHQR	≤ 0.25
TIVE	≤ 0.25
ANFL	≤ 0.25
QLSV	0.989
TIYL	4.11
LMRL	≤ 0.25
HQKC	≤ 0.25
DFPV	≤ 0.25
YQMK	≤ 0.25
SYYS	0.264
SVDL	1.56
MYSQ	≤ 0.25
VHET	≤ 0.25
GSAE	≤ 0.25
NFCP	≤ 0.25
PDTK	≤ 0.25
KKWL	≤ 0.25
VDQC	≤ 0.25
TSTA	14.2

Variant	enrichment ratio
RRNY	≤ 0.25
NSQL	≤ 0.25
TFQW	≤ 0.25
SCRM	≤ 0.25
AFKG	≤ 0.25
WVTM	≤ 0.25
ESEC	≤ 0.25
DGGK	≤ 0.25
QSKA	≤ 0.25
HKVA	≤ 0.25
PCNT	≤ 0.25
YLID	≤ 0.25
MEQP	≤ 0.25
QDNC	≤ 0.25
TGAA	7.8
WRWP	≤ 0.25
MHDN	≤ 0.25
GLCP	≤ 0.25
SRDA	≤ 0.25
PDSH	≤ 0.25
NHCP	≤ 0.25
NNWI	≤ 0.25
HYMG	≤ 0.25
FGEC	≤ 0.25

Variant	enrichment ratio
PQYC	≤ 0.25
DALF	≤ 0.25
MFPF	≤ 0.25
WLDT	≤ 0.25
QLRK	≤ 0.25
WFAT	≤ 0.25
TPLI	≤ 0.25
DWRV	≤ 0.25
PRHN	≤ 0.25
IGEY	≤ 0.25
FGWT	≤ 0.25
WHWP	≤ 0.25
HLAQ	≤ 0.25
LFCY	≤ 0.25
GKCL	10
YVNR	≤ 0.25
IVYR	≤ 0.25
WLIF	≤ 0.25
VVWP	≤ 0.25
HLSN	≤ 0.25
FYRN	≤ 0.25
RTDC	≤ 0.25
IPNY	≤ 0.25
HRCN	≤ 0.25

Variant	enrichment ratio
VLKI	≤ 0.25
GSDF	≤ 0.25
VSMW	≤ 0.25
DCRK	≤ 0.25
YFWV	≤ 0.25
FERW	≤ 0.25
KLFP	≤ 0.25
HFSR	0.254
FWMN	≤ 0.25
DEFM	≤ 0.25
GRGH	≤ 0.25
MCDM	≤ 0.25
RSYE	≤ 0.25
MQYH	≤ 0.25
PYYN	≤ 0.25
TWNC	≤ 0.25
QIWQ	34.4
NAPH	≤ 0.25
TIGR	5.97
PNTI	≤ 0.25
DQVG	≤ 0.25
NCDC	≤ 0.25
WFNY	≤ 0.25
VKHH	≤ 0.25

Variant	enrichment ratio
AMRN	≤ 0.25
NLNH	≤ 0.25
YTKA	≤ 0.25
GQSF	≤ 0.25
VMLT	≤ 0.25
SNSV	11.2
RVAW	≤ 0.25
YQPN	≤ 0.25
NFVF	≤ 0.25
SHKK	≤ 0.25
IDLP	≤ 0.25
GSKF	≤ 0.25
DFNH	≤ 0.25
IDPN	≤ 0.25
QRNY	≤ 0.25
HSAW	≤ 0.25
VAPW	≤ 0.25
VNLM	22.6
YEQL	≤ 0.25
NIRA	≤ 0.25
GPCI	≤ 0.25
IPTI	≤ 0.25
RRDL	≤ 0.25
VLDS	≤ 0.25

Variant	enrichment ratio
NHVY	≤ 0.25
FGDG	≤ 0.25
LSNF	≤ 0.25
PHEF	≤ 0.25
NIYC	≤ 0.25
ENKN	≤ 0.25
EDEF	≤ 0.25
WCYP	≤ 0.25
RTSQ	≤ 0.25
NCQL	≤ 0.25
PDGR	≤ 0.25
FDAS	≤ 0.25
HYFQ	≤ 0.25
NYRR	≤ 0.25
SALT	11.2
WKNN	≤ 0.25
KKCQ	≤ 0.25
MSKN	≤ 0.25
EKHG	≤ 0.25
MRFA	≤ 0.25
KCDF	≤ 0.25
YTWE	≤ 0.25
SEVR	12.1
TPGW	≤ 0.25

Variant	enrichment ratio
LLAS	0.337
MNES	≤ 0.25
GNLR	≤ 0.25
GYFS	≤ 0.25
SFFL	≤ 0.25
APCD	≤ 0.25
QEYN	≤ 0.25
DCMH	≤ 0.25
YQYR	≤ 0.25
KTWV	≤ 0.25
VDGK	≤ 0.25
VCGH	≤ 0.25
IVLA	≤ 0.25
GWTP	≤ 0.25
MDDM	≤ 0.25
IMGW	≤ 0.25
NMFK	≤ 0.25
DSHP	≤ 0.25
DWHA	≤ 0.25
RNHN	≤ 0.25
QFLD	≤ 0.25
DLEH	≤ 0.25
RMYC	≤ 0.25
GVMP	≤ 0.25

Variant	enrichment ratio
ECEP	15.1
FSTR	≤ 0.25
LQWS	≤ 0.25
HSNL	≤ 0.25
APRR	≤ 0.25
VLLY	≤ 0.25
SSCR	≤ 0.25
IHDG	≤ 0.25
FICH	≤ 0.25
AWTL	≤ 0.25
KLKD	≤ 0.25
QVPL	≤ 0.25
GVDF	≤ 0.25
SCVC	2.27
QGFQ	13.4
FHEE	≤ 0.25
HGFG	≤ 0.25
VIGH	≤ 0.25
EQMV	≤ 0.25
AAHF	≤ 0.25
PSTI	≤ 0.25
ILGM	≤ 0.25
RKLV	≤ 0.25
FMKN	≤ 0.25

Variant	enrichment ratio
LSHF	≤ 0.25
WNQW	≤ 0.25
EHRH	≤ 0.25
DIMF	≤ 0.25
GDVE	≤ 0.25
SQDR	≤ 0.25
EPRL	≤ 0.25
YNNV	≤ 0.25
MLLT	≤ 0.25
MNPL	≤ 0.25
KHEA	≤ 0.25
YHDV	≤ 0.25
RMTN	≤ 0.25
IANG	≤ 0.25
SGQY	4
VRKV	≤ 0.25
VPSL	≤ 0.25
TEWG	3.3
HVGL	≤ 0.25
MVRD	≤ 0.25
VYPM	≤ 0.25
MHNW	≤ 0.25
IWCA	≤ 0.25
FQSR	≤ 0.25

Variant	enrichment ratio
LKAC	≤ 0.25
QTEP	≤ 0.25
DPFM	≤ 0.25
NNIG	≤ 0.25
FKNS	≤ 0.25
FHYT	≤ 0.25
AQLI	7.44
HLAR	≤ 0.25
DTPC	≤ 0.25
WQAF	≤ 0.25
PFIR	≤ 0.25
YTFK	≤ 0.25
QKTP	≤ 0.25
RNSQ	≤ 0.25
KLLL	≤ 0.25
IQPM	≤ 0.25
AYLT	0.401
MEQH	≤ 0.25
IAPP	≤ 0.25
MPFD	≤ 0.25
DWTV	≤ 0.25
TWQV	≤ 0.25
KNCQ	≤ 0.25
VKNL	≤ 0.25

Variant	enrichment ratio
ATFV	≤ 0.25
PNID	≤ 0.25
LYLG	≤ 0.25
HHIL	≤ 0.25
PVWP	≤ 0.25
MYGM	≤ 0.25
TGWE	≤ 0.25
IDSS	≤ 0.25
RNAV	≤ 0.25
FEFR	≤ 0.25
HTIS	≤ 0.25
ERDW	≤ 0.25
NVKC	≤ 0.25
DGRC	≤ 0.25
VTFD	≤ 0.25
KHMP	≤ 0.25
IDPA	≤ 0.25
IVVS	≤ 0.25
FRVK	≤ 0.25
KALR	≤ 0.25
HAYK	≤ 0.25
HGYL	2.16
QIWH	≤ 0.25
KYIG	≤ 0.25

Variant	enrichment ratio
ACHL	≤ 0.25
NIPC	≤ 0.25
QGPK	≤ 0.25
PTPS	≤ 0.25
NEYN	≤ 0.25
WTTR	≤ 0.25
WFSG	≤ 0.25
NKMV	≤ 0.25
FNTI	≤ 0.25
KNIP	≤ 0.25
VNME	≤ 0.25
DSIM	≤ 0.25
VHSQ	≤ 0.25
SHWW	≤ 0.25
FNHS	≤ 0.25
GHAP	≤ 0.25
FAWT	≤ 0.25
SSRC	≤ 0.25
